doi:10.1101/2025.09.25.678639, “The DND1–NANOS3 complex shapes the primordial germ cell transcriptome via a heptanucleotide sequence in mRNA 3′ UTRs”
Results are given in words; binding and its absence hold for the method and conditions named. Binding seen in cells or lysates may run through a third protein. Some results given as binding are weak or reduced against the parent protein; the word gives no strength. For part of these data: Tags and fused reporters may be left off the sequences shown. Values belong to the molecule of their own block, whether it stands above or below them.

Chains of the proteins cited; added tags and fusions are not shown. Lines headed by an entry give the natural chain unless they say otherwise; changes in a name come on top.
UniProt P60323: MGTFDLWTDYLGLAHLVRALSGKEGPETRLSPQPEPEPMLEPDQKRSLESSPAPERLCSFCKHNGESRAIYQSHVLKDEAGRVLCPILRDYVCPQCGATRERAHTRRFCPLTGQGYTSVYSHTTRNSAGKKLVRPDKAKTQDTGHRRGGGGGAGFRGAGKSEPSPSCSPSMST
UniProt Q9ULM6: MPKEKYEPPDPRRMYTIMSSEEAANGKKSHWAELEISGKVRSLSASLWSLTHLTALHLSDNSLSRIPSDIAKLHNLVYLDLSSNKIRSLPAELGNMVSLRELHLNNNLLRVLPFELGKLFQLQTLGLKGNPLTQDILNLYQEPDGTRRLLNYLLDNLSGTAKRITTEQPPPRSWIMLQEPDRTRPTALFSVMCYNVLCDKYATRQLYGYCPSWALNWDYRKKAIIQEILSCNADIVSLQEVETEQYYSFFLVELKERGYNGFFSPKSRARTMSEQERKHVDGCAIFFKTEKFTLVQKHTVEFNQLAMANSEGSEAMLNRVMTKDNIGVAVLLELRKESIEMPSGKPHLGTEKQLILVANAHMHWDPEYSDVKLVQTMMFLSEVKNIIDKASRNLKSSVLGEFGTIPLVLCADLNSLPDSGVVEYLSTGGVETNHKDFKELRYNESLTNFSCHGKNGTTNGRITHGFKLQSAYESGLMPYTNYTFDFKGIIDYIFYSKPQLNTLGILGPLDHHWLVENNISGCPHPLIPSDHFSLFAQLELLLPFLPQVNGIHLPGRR

Key:
[1] = target: FH-DND1–NANOS3-VH complex (human) (UniProt Q8IYX4+P60323); experiment: co-IP; tandem IP from 4SU-labelled, UV-crosslinked NANOS3-VH-P2A-FH-DND1 HEK293 cells; lysate treated with RNase T1; first IP on V5-agarose (NANOS3-VH), elution with V5 peptide, second IP on anti-FLAG M2 magnetic beads (FH-DND1); washes with NP-40 lysis buffer and 500 mM NaCl buffer; Western blot
[2] = target: C-terminally V5- and HA-tagged NANOS3 (human) (UniProt P60323); experiment: co-IP; lysates of doxycycline-induced Flp-In T-REx HEK293 cells co-expressing NANOS3-VH-P2A-FH-DND1 (wild type, point mutants or deletions); mutant panel: IP with anti-V5 antibody (NANOS3), blot for co-immunoprecipitated DND1, two independent experiments
NANOS3-VH K77A (human) = NANOS3-VH K77A (human) (UniProt P60323); experiment: as above
NANOS3-VH H63A (human) = NANOS3-VH H63A (human) (UniProt P60323); experiment: as above
NANOS3-VH Y91A (human) = NANOS3-VH Y91A (human) (UniProt P60323); experiment: as above
NANOS3-VH F108A (human) = NANOS3-VH F108A (human) (UniProt P60323); experiment: as above

binding [1]: binds
Molecule: CNOT6 (from UniProt Q9ULM6 1-557)

binding [2]: no binding
B1: FH-DND1 Δ1-12 (domain or fragment, UniProt Q8IYX4 13-353)
chain: RVNPENKAALEAWVRETGIRLVQVNGQRKYGGPPPGWVGSPPPAGSEVFIGRLPQDVYEHQLIPLFQRVGRLYEFRLMMTFSGLNRGFAYARYSSRRGAQAAIATLHNHPLRPSCPLLVCRSTEKCELSVDGLPPNLTRSALLLALQPLGPGLQEARLLPSPGPAPGQIALLKFSSHRAAAMAKKALVEGQSHLCGEQVAVEWLKPDLKQRLRQQLVGPFLRSPQPEGSQLALARDKLGFQGARATLQLLCQRMKLGSPVFLTKCLGIGPAGWHRFWYQVVIPGHPVPFSGLIWVVLTLDGRDGHEVAKDAVSVRLLQALSESGANLLWSAGAEAGTMVKQ

binding [2]: no binding
B2: FH-DND1 K196A (protein, UniProt Q8IYX4 1-353)
chain: MQSKRDCELWCERVNPENKAALEAWVRETGIRLVQVNGQRKYGGPPPGWVGSPPPAGSEVFIGRLPQDVYEHQLIPLFQRVGRLYEFRLMMTFSGLNRGFAYARYSSRRGAQAAIATLHNHPLRPSCPLLVCRSTEKCELSVDGLPPNLTRSALLLALQPLGPGLQEARLLPSPGPAPGQIALLKFSSHRAAAMAAKALVEGQSHLCGEQVAVEWLKPDLKQRLRQQLVGPFLRSPQPEGSQLALARDKLGFQGARATLQLLCQRMKLGSPVFLTKCLGIGPAGWHRFWYQVVIPGHPVPFSGLIWVVLTLDGRDGHEVAKDAVSVRLLQALSESGANLLWSAGAEAGTMVKQ

binding [2]: no binding
B3: FH-DND1 K197A (protein, UniProt Q8IYX4 1-353)
chain: MQSKRDCELWCERVNPENKAALEAWVRETGIRLVQVNGQRKYGGPPPGWVGSPPPAGSEVFIGRLPQDVYEHQLIPLFQRVGRLYEFRLMMTFSGLNRGFAYARYSSRRGAQAAIATLHNHPLRPSCPLLVCRSTEKCELSVDGLPPNLTRSALLLALQPLGPGLQEARLLPSPGPAPGQIALLKFSSHRAAAMAKAALVEGQSHLCGEQVAVEWLKPDLKQRLRQQLVGPFLRSPQPEGSQLALARDKLGFQGARATLQLLCQRMKLGSPVFLTKCLGIGPAGWHRFWYQVVIPGHPVPFSGLIWVVLTLDGRDGHEVAKDAVSVRLLQALSESGANLLWSAGAEAGTMVKQ

binding [2]: no binding
B4: FH-DND1 F61A (protein, UniProt Q8IYX4 1-353)
chain: MQSKRDCELWCERVNPENKAALEAWVRETGIRLVQVNGQRKYGGPPPGWVGSPPPAGSEVAIGRLPQDVYEHQLIPLFQRVGRLYEFRLMMTFSGLNRGFAYARYSSRRGAQAAIATLHNHPLRPSCPLLVCRSTEKCELSVDGLPPNLTRSALLLALQPLGPGLQEARLLPSPGPAPGQIALLKFSSHRAAAMAKKALVEGQSHLCGEQVAVEWLKPDLKQRLRQQLVGPFLRSPQPEGSQLALARDKLGFQGARATLQLLCQRMKLGSPVFLTKCLGIGPAGWHRFWYQVVIPGHPVPFSGLIWVVLTLDGRDGHEVAKDAVSVRLLQALSESGANLLWSAGAEAGTMVKQ

B5: N-terminally FLAG- and hemagglutinin (HA)-tagged DND1 (protein, UniProt Q8IYX4 1-353)
chain: MQSKRDCELWCERVNPENKAALEAWVRETGIRLVQVNGQRKYGGPPPGWVGSPPPAGSEVFIGRLPQDVYEHQLIPLFQRVGRLYEFRLMMTFSGLNRGFAYARYSSRRGAQAAIATLHNHPLRPSCPLLVCRSTEKCELSVDGLPPNLTRSALLLALQPLGPGLQEARLLPSPGPAPGQIALLKFSSHRAAAMAKKALVEGQSHLCGEQVAVEWLKPDLKQRLRQQLVGPFLRSPQPEGSQLALARDKLGFQGARATLQLLCQRMKLGSPVFLTKCLGIGPAGWHRFWYQVVIPGHPVPFSGLIWVVLTLDGRDGHEVAKDAVSVRLLQALSESGANLLWSAGAEAGTMVKQ
binding (NANOS3-VH K77A (human)): no binding
binding (NANOS3-VH H63A (human)): no binding
binding (NANOS3-VH Y91A (human)): no binding
binding (NANOS3-VH F108A (human)): no binding
